PubChem BioAssay AID1030 (National Center for Advancing Translational Sciences (NCATS), 2008)
Hit rate of the full screen: of about 220,000 compounds, about 16,000 (7.3%) were called active. Inconclusive means that the source gave no clear call. Such entries were picked first, then a sample of the others. Calls come from the whole dose curve; as a rule, active = well fitted inhibition curve with a large enough effect (not every such curve was filed as active); inconclusive = small, poorly fitted or top-dose-only effect, or another doubt; inactive = no such curve, though single readings can be large or run the other way. Potencies of inconclusive entries are left out as doubtful fits.

Target: Aldehyde dehydrogenase 1A1 (Homo sapiens) (UniProt P00352)
Chain of UniProt P00352 (P00352 whole entry, looked up): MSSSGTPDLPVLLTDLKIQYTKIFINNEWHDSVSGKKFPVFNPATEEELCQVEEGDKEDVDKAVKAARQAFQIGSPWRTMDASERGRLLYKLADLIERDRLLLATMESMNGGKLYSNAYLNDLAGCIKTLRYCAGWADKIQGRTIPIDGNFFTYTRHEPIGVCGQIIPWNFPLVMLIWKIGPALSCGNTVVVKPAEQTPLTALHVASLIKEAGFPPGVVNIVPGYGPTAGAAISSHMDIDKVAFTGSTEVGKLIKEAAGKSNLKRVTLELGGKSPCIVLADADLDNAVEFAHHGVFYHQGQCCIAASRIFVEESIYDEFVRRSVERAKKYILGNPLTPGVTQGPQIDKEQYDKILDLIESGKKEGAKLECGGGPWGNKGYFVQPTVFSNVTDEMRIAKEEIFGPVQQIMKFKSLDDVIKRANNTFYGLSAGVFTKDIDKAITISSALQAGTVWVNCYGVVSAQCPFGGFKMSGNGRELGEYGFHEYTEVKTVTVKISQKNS
Experiment: qHTS Assay for Inhibitors of Aldehyde Dehydrogenase 1 (ALDH1A1);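 for activity, negative = inhibition: plate controls were no enzyme wells and a reference inhibitor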
Details: Purified ALDH1A1, NADH fluorescence, propionaldehyde substrate; series mostly up to 75.3 µM; activity, negative = inhibition: at the top concentration
Potency is the fitted concentration of half-maximal effect; tags give direction and shape of the fitted curve.

SMILES	Potency	activity, negative = inhibition
C=CCn1c(=S)[nH]c2nc3c(cc2c1=O)COC(C)(C)C3	inconclusive [inhibitor, single point]	
CCOC(=O)c1cc[n+](CC(=O)c2ccc(F)cc2)cc1	inconclusive [inhibitor, partial curve, poor fit]	
CCCOc1ccc(C(=O)CCNc2cccc(Cl)c2)cc1	active: 7.94 µM	
O=C1N(c2ccccc2)C[C@@H]2C[C@@H](c3cccc4c3OCO4)N3CCC[C@@]123		inactive: 0.529%
CCN1C(=O)c2cccc3c(S(=O)(=O)Nc4ncccc4C)ccc1c23	active: 10 µM	
COCCNC(=O)C(=O)N/N=C/c1ccccc1C(F)(F)F		inactive: 1.79%
CCC(=O)N1CCc2cc(Br)cc(S(=O)(=O)C3(C(=O)OC)CC3)c21	inconclusive [inhibitor, single point]	
CCn1c(COc2ccccc2C)nnc1SCC(=O)OC		inactive: 7.97%
C=CCOn1c(C)c(C(C)=O)c2c3nonc3ccc21	inconclusive [inhibitor, partial curve]	
CCc1ccccc1N/C(=N\S(=O)(=O)c1ccccc1)C(F)(F)F	inconclusive [inhibitor, single point]	
Cc1ccccc1C(=O)N1CCC(C(N)=O)CC1	inconclusive [inhibitor, single point]	
CCCCn1c(-c2ccccc2)nc2c(=O)n(C)c(=O)[nH]c21	inconclusive [inhibitor, partial curve]	
CCOc1cccc(/C(O)=C2/C(=O)C(=O)N(CCOC)C2c2ccncc2)c1 (stereo unspecified)		inactive: -3.89%
Cc1ccc(CNC(=O)c2sc3ccc(S(=O)(=O)N4CCCCC4)cc3c2N)cc1		inactive: -1%
COc1cc(S(=O)(=O)N(Cc2ccc(C)cc2)Cc2ccco2)ccc1-n1cnnn1	active: 12.6 µM	
Cc1cc(C)cc(NC(=S)N2CCN(Cc3ccccc3)CC2)c1		inactive: 3.98%
Cn1c(=O)c2c(ncn2CC(COCc2ccccc2Cl)OCc2ccccc2Cl)n(C)c1=O (stereo unspecified)	inconclusive [inhibitor, single point]	
Cc1ccc(C)c(NC(=O)C2=CCN(S(=O)(=O)c3ccc(F)cc3)CC2)c1		inactive: 11.8%
COc1ccc(CNC(=O)C2(c3ccc(Cl)cc3)CC2)cc1	inconclusive [inhibitor, single point]	
Cc1cc(C(=O)N/N=C/c2sc(N3CCOCC3)nc2-c2ccccc2)c(C)o1	inconclusive [inhibitor, partial curve]	
CCCCOC(=S)NC(=O)c1sc2ccccc2c1Cl	inconclusive [inhibitor, single point]	
CC1(C)CC(=O)c2cnc(NC(=O)Cc3ccc(Cl)cc3)nc2C1	inconclusive [inhibitor, partial curve]	
CC(C)c1ccc(NC(=O)C(c2ccccc2)N2CCN(C(=O)c3ccco3)CC2)cc1 (stereo unspecified)	active: 12.6 µM	

SMILES	Potency	activity, negative = inhibition
O=C(CCN1CCCCCC1)Nc1ccc(F)cc1	inconclusive [inhibitor, single point]	
CCOc1ccc(-c2nnc(-c3cccs3)o2)cc1	inconclusive [inhibitor, partial curve]	
CN1CCN(C(=O)CSc2cc(=O)n(C)c3ccccc23)CC1	inconclusive [inhibitor, single point]	
O=S(NCc1ccco1)C12CC3CC(CC(C3)C1)C2 (stereo unspecified)	inconclusive [inhibitor, single point]	
Clc1ccc(OCc2nc(-c3ccncc3)no2)c(Br)c1		inactive: -4.7%
COC(=O)c1sccc1NC(=S)N1CC(C)CC(C)C1 (stereo unspecified)	active: 7.94 µM	
COCC(=O)NC1CC2CCC(C1)N2C(=S)Nc1ccccc1C(=O)OC (stereo unspecified)		inactive: -15.7%
Cc1ccc(-n2c(C)csc2=N)cc1	inconclusive [inhibitor, single point]	
CCOc1ccc(N2C(=O)/C(=C/c3ccco3)N(C)C2=S)cc1	inconclusive [inhibitor, single point]	
CCCCCCC(=O)Nc1nc(C)c(-c2csc(Nc3cc(Cl)ccc3C)n2)s1	inconclusive [inhibitor, partial curve]	
Cc1ccc2cc(C3CC(c4ccco4)=NN3S(C)(=O)=O)c(Cl)nc2c1 (stereo unspecified)	active: 17.8 µM	
O=C(Cn1cnc2ccccc2c1=O)OCC(=O)c1ccc2c(c1)OCCO2	inconclusive [inhibitor, single point]	
CC(C)c1[nH]nc2c1C(C1C=CCCC1)C(C#N)=C(N)O2 (stereo unspecified)	active: 14.1 µM	
CC(C)CN(C(=O)CSc1nnc2c(Cl)cc(C(F)(F)F)cn12)C1CCS(=O)(=O)C1 (stereo unspecified)	inconclusive [inhibitor, single point]	
Cc1ccc(C(=O)NC2CC3CCCC(C2)N3C(=S)NCc2ccco2)cc1 (stereo unspecified)	active: 22.4 µM	
C=CCn1cnc2c(nnn2-c2ccc(C)c(C)c2)c1=O	inconclusive [inhibitor, single point]	
CN(C)/C=C/C(=O)c1cnc(-c2ccccc2)s1	inconclusive [inhibitor, partial curve]	
C#CCOCCOCCOCCNc1nc(N2CCN(C(=O)[C@H]([C@@H](C)CC)n3cc([C@@H](N)Cc4ccc(O)cc4)nn3)CC2)nc(N2CCN(C(=O)[C@H](CCCCN)n3cc([C@@H](N)CO)nn3)CC2)n1	inconclusive [inhibitor, partial curve]	
Cn1c(SCC(=O)c2ccc3c(c2)Cc2ccccc2-3)nnc1-c1ccccc1	inconclusive [inhibitor, single point]	
CCCC(CCC)=NNC(=O)c1ccccc1F	inconclusive [inhibitor, single point]	
Cc1ccccc1OCC(=O)Nc1ccccc1-c1ccccc1	active: 8.91 µM	
CCCCN(CC)CCNC(=O)CCC(=O)Nc1ccc2nc(N3CCN(C)CC3)cc(C)c2c1	inconclusive [inhibitor, partial curve]	
COCCOc1ccc(C(F)(F)F)cc1NC(=O)c1ccc(C)cc1	inconclusive [inhibitor, single point]	
